# Assay results taken from the supplement of paper PMC3334620.
# In all, about 33,000 sequences were measured (“E-score (-0.5 to 0.5)”: median about -0.056, highest 2% from about 0.38 on). Some of the results follow.
# Molecular target: Stb4 (UniProt P50104)
# Test: PBM E-score (8-mer binding enrichment) (E-score (-0.5 to 0.5)); higher = stronger / more preferred TF binding; most listed sequences are background and not binding sites
# Details: protein concentration: 200 nM; construct: GST-DNA-binding domain
# Method in brief: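 Universal all-10-mer Agilent arrays, double-stranded by primer extension on fresh or once-stripped slides, were probed with about 100-200 nM GST-tagged yeast transcription factors made by PURExpress. Fluorescent anti-GST detected bound protein, and masliner normalised the scans. E-scores from the Universal PBM Analysis Suite were given to each ungapped eight-base word pooled with its reverse complement.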
row,Sequence,PBM E-score
1,AACCGTCA,-0.0559
2,CTGGCGAC,-0.225
3,CTTCACTA,-0.186
4,TAGTGCCA,-0.179
5,ACGCTAGA,-0.097
6,ACCGAGGA,0.323
7,AGTATGTA,-0.0544
8,TAGTAAAA,-0.0383
9,ATCAAGTA,-0.105
10,CCATACGA,-0.173
11,ACAATCTG,-0.064
12,TATCCTAA,-0.13
13,AAGCAGTC,-0.0806
14,ACACCGGC,0.182
15,CGACTGTA,-0.169
16,AAAGACTT,-0.161
17,ACTGAGCT,-0.197
18,CTGAGATA,0.0767
19,GTCAATGA,-0.264
20,AAAATGCG,0.0746
21,CAAGGCGC,-0.0814
22,GGGAAAGA,-0.0458
23,GGGTGCAA,0.279
24,TAAAGATA,-0.0153
25,CTATGGAG,-0.288

row,Sequence,PBM E-score
1,TATTCTGA,-0.0955
2,AAGTTTAC,-0.0345
3,ATAGTTTA,-0.194
4,CTAGACGA,-0.272
5,GCTTGAGA,-0.312
6,AGTACGGC,-0.00308
7,AGACTGGG,-0.0949
8,ACACCGGG,0.213
9,GAATTGCA,-0.0881
10,CCAGCTCC,-0.0562
11,ATACCTAC,0.0401
12,GATGACCC,-0.0287
13,ACTCGAAC,-0.265
14,AGACTGCG,-0.148
15,AGGAACTA,0.0365
16,ATGCCAGG,0.0545
17,ATAGGAAG,-0.113
18,CGTGATCA,-0.134
19,AATCGTTA,-0.0223
20,TCCACGGA,0.275
21,ATATGCCC,-0.00474
22,ATAAAGCA,-0.157
23,ATATCAAG,-0.15
24,AGATGTAA,-0.0732
25,CCCCTGAG,-0.224

row,Sequence,PBM E-score
1,CATACAGG,-0.149
2,ACTGAGGG,-0.281
3,CTATCATC,0.0565
4,CGGTCCAA,0.0958
5,GTTTTCAA,-0.0295
6,GGAGCATA,0.238
7,ACTATGGG,-0.208
8,ACTTGGTC,0.0782
9,CCGCCACG,0.0619
10,CACCGTTC,0.0443
11,AGTCGTCC,0.0517
12,AAGCATAC,-0.108
13,ACTGCCAC,-0.227
14,GGCGCTGA,-0.161
15,ATCATGGC,0.011
16,ACATGTCG,-0.0783
17,ATGACAGA,-0.113
18,ATTACAGG,-0.0285
19,ACATATAA,-0.0928
20,AACTACGT,-0.145
21,GTTAGCCA,0.0717
22,CGCAATAA,0.0534
23,TAGTGCAA,-0.216
24,CATAACGA,-0.153
25,ATGTGTGC,-0.154

row,Sequence,PBM E-score
1,CTTGCGGA,0.112
2,ATCTAAGA,-0.112
3,ACGTAACA,-0.043
4,AAGGGAAC,-0.0269
5,ACGGCCGT,0.0769
6,GGACCGAA,0.322
7,CAACAGCG,-0.0446
8,CGGAGGAG,0.209
9,ACGCTCGG,0.42
10,AACGCCCT,-0.271
11,CTTAAGTC,0.029
12,GAGGGACC,-0.126
13,CAAATCGC,-0.184
14,AAAACGAT,-0.277
15,CAAGGAGA,-0.0842
16,ATTATACA,-0.0638
17,CCGAACCG,0.447
18,AGCGACAT,-0.197
19,GCCGGCAC,0.329
20,GGATGCAC,0.121
21,ATTCGAAA,-0.0533
22,AGTTGGTC,-0.0467
23,GGGGCCAC,-0.0381
24,ACAGAAAG,-0.101
25,AGAGTGTC,-0.0967

row,Sequence,PBM E-score
1,CTCAAAGA,-0.203
2,ATATGCAT,0.00238
3,GTATAGTA,0.0914
4,CAGGTCCC,-0.0608
5,AGCACATG,-0.166
6,GGCGGTGA,-0.0521
7,ACCTTTAC,0.0353
8,ACGGCTAA,0.264
9,GCAGTCGA,0.0133
10,CGCGCCCA,0.0532
11,TAACTTAA,0.0212
12,TATCAACA,-0.155
13,AACAGTGC,0.0266
14,CTTAATAA,0.183
15,GAGACAAA,-0.111
16,CACGAGTG,-0.322
17,GAAATAAC,0.138
18,CATAGTCG,-0.0983
19,CTGGTAGC,-0.224
20,ACCGGACG,0.146
21,AAGAATGC,0.0415
22,CGTATTGA,-0.271
23,ACCCTCCG,0.219
24,GTGGTAAC,0.0417
25,AGCGCTTG,-0.0436

row,Sequence,PBM E-score
1,ATATGGAA,-0.0997
2,CGTCAAAA,-0.117
3,AGTTCAGC,-0.143
4,ATGAAGTA,-0.112
5,TAAAAATA,-0.094
6,AATCTCGT,-0.0273
7,CCTCACAA,0.00427
8,GAATATAC,0.0907
9,CGATTGGA,-0.122
10,GTCGTCAA,-0.00905
11,CAAGGACA,-0.104
12,AACAACAG,-0.0489
13,ATATCTTG,-0.232
14,GGGCACTA,-0.102
15,ACTATAAA,-0.0593
16,AATCGACG,-0.118
17,GGAAGAAC,0.278
18,AATGTCGA,-0.212
19,AGGAGTCA,-0.0329
20,CGACGACA,-0.0341
21,ACCACGGC,0.151
22,CGTTCGAG,-0.222
23,ACGACTAC,-0.216
24,GCTGTGAC,-0.161
25,ATCCTCCA,-0.234

row,Sequence,PBM E-score
1,TCTGTTCA,-0.128
2,CTATAGGA,-0.178
3,CAACAGTG,0.0353
4,ACACCCCA,-0.124
5,CTACTACA,-0.0284
6,GAATTATA,0.0138
7,ACTATGAG,-0.131
8,CGATTGAG,0.0561
9,TTCATAAA,-0.0895
10,GGCGACGA,-0.0901
11,CGGGCTTC,0.276
12,ACAGGAAC,-0.133
13,AAATGCGA,-0.0548
14,ACGTGGCA,-0.256
15,AGGTTGTA,-0.0202
16,ACCCACGG,-0.00624
17,CCGCCTCG,0.173
18,CAATTGTC,-0.0439
19,ACACTACG,0.0379
20,GCATTGTA,-0.0628
21,GACTTATA,0.0812
22,ATCTCGGA,0.461
